# The campaign covered roughly 44,000 compounds. About 340 (0.77%) were called active. Not shown: some 5% with an inconclusive outcome. The call rests on the fitted dose curve; in most records, active means well fitted inhibition curve with a large enough effect; inconclusive means small, poorly fitted or top-dose-only effect; inactive means flat fitted curve, though single readings scatter. The list shows a part of the results.
# Assay: Acumen qHTS Assay for Inhibitors of the mTORC1 Signaling Pathway in MEF (Tsc2-/-, p53-/-) Cells: Sytravon; further: nearly all actives have a fitted effect of over 50% in size;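 on activity change, negative = inhibition: plate controls were DMSO for no effect and rapamycin for full effect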
# Conditions: phospho-rpS6 immunofluorescence/PI, 24 h; series mostly up to 38.3 µM; activity change, negative = inhibition: at the top concentration
# How it was run: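 Cell-based qHTS: Tsc2-/- p53-/- MEF, 24 h cpd, 37 °C; fix/perm, anti-phospho-S6 Alexa-488 + PI; Acumen 488 nm scan; pS6/PI ratio, % positive cells; rapamycin 7.5 nM = inhibition ref; PI count = viability.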
# Potency means the concentration at half of the fitted maximal effect.
Structure (SMILES),"activity change, negative = inhibition",Potency
COc1ccc(C(=O)Nc2nc3c(s2)Cc2c(Br)ccc(OC)c2-3)cc1OC,inactive: -2.18%,–
Cc1cc(C)cc(N(CC(=O)Nc2c(C)cc(C)cc2C)S(=O)(=O)c2c(C)nn(C)c2C)c1,inactive: 0%,–
CCc1ccc(NC(=O)CSc2nnc(CC)c(CC)n2)cc1,inactive: 6.64%,–
CCN(CC)S(=O)(=O)c1cc(-c2ccc(=O)n(C(C)C(=O)Nc3cccc(C#N)c3)n2)ccc1C (centres undefined),inactive: -3.27%,–
Cc1ccc(Cn2c(CN3CCC(C(=O)O)CC3)cc3ccccc32)cc1,inactive: -1.21%,–
COc1ccc(-c2noc(CSc3nnc(Cc4ccccc4)n3-c3ccc(F)cc3)n2)cc1,inactive: -5.44%,–
CN(CC(=O)Nc1ccc(F)cc1F)S(=O)(=O)c1cccc2nsnc12,inactive: 2.86%,–
CC(C)NC(=O)C1CCCN(c2ncnc3onc(-c4ccc(F)cc4)c23)C1 (centres undefined),inactive: -0.992%,–
CCOc1ccccc1NC(=O)CCS(=O)(=O)c1ccc2c(c1)oc(=O)n2C,inactive: -11.4%,–
CCOc1cc(-c2nnc(SCC(=O)NC3CCCCC3)nc2-c2ccc(OC)c(OCC)c2)ccc1OC,inactive: -0.229%,–
CCOC(=O)C(C)Sc1nnc2cc(C)c3ccccc3n12 (centres undefined),inactive: -0.408%,–
COc1ccc2oc(-c3cccc(NC(=O)c4cc([N+](=O)[O-])ccc4N4CCOCC4)c3)nc2c1,inactive: -11.1%,–
COc1cc(C2c3c(-c4c(C)cc(C)cc4O)n[nH]c3C(=O)N2Cc2ccco2)cc(OC)c1OC (centres undefined),inactive: -14.4%,–
COc1ccc(Nc2ncc3c(n2)CCN(Cc2sccc2C)C3)c(OC)c1,inactive: 0%,–
COc1ccc2c(CNCCc3ccco3)c(C(=O)O)n(Cc3ccc(C)cc3)c2c1,inactive: -0.983%,–
O=C(Cn1ncc2c3ccccc3n(Cc3ccccc3)c2c1=O)NCc1ccccn1,inactive: -0.29%,–
Cc1ccccc1CNC(=O)C1CCCCN1S(=O)(=O)c1ccc(F)cc1 (centres undefined),inactive: -2.7%,–
COc1ccc(C(CNC(=O)c2oc3cc(Br)ccc3c2C)N2CCCCC2)cc1 (centres undefined),inactive: 3.36%,–
O=[N+]([O-])c1ccc(S(=O)(=O)N2CCn3cccc3C2c2ccc(Br)cc2)cc1 (centres undefined),inactive: -4.6%,–
COc1ccc(OC)c(-c2cc(C(=O)Nc3c(C)nn(Cc4ccc(C)cc4)c3C)no2)c1,inactive: -19%,–
Cc1ccc(-n2nc(C(=O)N(C)c3ccc(C)c(C)c3)c3c4ccccc4n(C)c3c2=O)cc1,inactive: -6.35%,–
CCOC(=O)CN1C(=O)N(c2ccc(C)c(C)c2)S(=O)(=O)c2ccccc21,inactive: -5.9%,–
Cc1ccc(CN2CCC(CNC(=O)c3cnn(-c4ccc(C)cc4)c3C3CCN(C(=O)OC(C)(C)C)CC3)CC2)cc1,inactive: -1.96%,–
Cc1ccc(S(=O)(=O)N(CC(=O)Nc2cccnc2)c2cc(Cl)ccc2C)cc1,inactive: -18.1%,–

Structure (SMILES),"activity change, negative = inhibition",Potency
Cc1cc(=O)n(CC(=O)Nc2ccc(Cl)c(Cl)c2)c(-n2nc(C)cc2C)n1,inactive: -12.9%,–
CCOc1ccc(CNC(=O)C2CCCN(c3nn4cc(-c5ccc(OC)cc5)nc4s3)C2)cc1 (centres undefined),inactive: -6.38%,–
COc1ccc(NC(=O)CC2C(=O)N(c3ccccc3)C(=O)N2CCc2sccc2C)cc1 (centres undefined),inactive: -5.24%,–
Cc1cccc(NC(=O)CCCn2nc(C)c3c(C)n(-c4ccccc4)nc3c2=O)c1C,inactive: -1%,–
CC(C)CCNc1nc2c(-c3ccccc3)nnn2c2ccccc12,inactive: -18%,–
Cc1ccc(C(=O)CSc2nc3cc(C(=O)NC4CCCC4)ccc3c(=O)n2CC2CCCO2)c(C)c1 (centres undefined),inactive: 6.26%,–
CCOc1ccc(CNC(=O)c2ccc(CSc3nc4ccncc4n3Cc3ccc(F)cc3)cc2)cc1,inactive: 0.497%,–
COc1cccc(NC(=O)c2oc3ccccc3c2NC(=O)c2ccccc2C)c1,inactive: -0.563%,–
O=C(CC1N=C2c3ccccc3N=C(SCc3cccc(F)c3)N2C1=O)NCc1cccs1 (centres undefined),inactive: -4.08%,–
COC(=O)c1ccccc1NC(=O)CSc1n[nH]c(CC(C)C)n1,inactive: 1.66%,–
Cc1nn(-c2ccccc2)c2nc(C3CC3)cc(C(=O)Nc3cccc(F)c3)c12,inactive: -10.2%,–
CCCCN(CCCC)CCCNC(=O)c1ccc2nc(N3CCCCC3)sc2c1,inactive: -0.0538%,–
Cc1ccc(CNC(=O)CCNS(=O)(=O)c2ccc3c(c2)CCCC(=O)N3)cc1,inactive: -4.8%,–
COc1ccc2c(c1)c1c(c(=O)n(-c3cc(Cl)ccc3C)c(=O)n1CC(=O)N1CCCC1)n2C,inactive: 0.318%,–
COc1ccc(-c2nnn3c2nc(NCCc2ccc(OC)c(OC)c2)c2ccccc23)cc1,inactive: -18.4%,–
Cc1nn2c(=O)cc(COc3ccc(/C=C(\C#N)C(=O)Nc4ccccc4C)cc3)nc2s1,inactive: -2.46%,–
COc1ccc(OC)c(Nc2nc3ccccc3nc2-n2nc(C)cc2C)c1,inactive: -0.796%,–
COc1ccc(Cn2ccc3nc(C)c(C(=O)N4CCN(c5ccc(F)cc5)CC4)cc3c2=O)cc1,inactive: -1.5%,–
Cc1ccccc1NC(=O)c1c(NC(=O)c2ccccc2F)sc2c1CCC(C)C2 (centres undefined),inactive: -4.97%,–
COc1ccccc1NC(=O)c1ncn(-c2ccccc2)n1,inactive: -0.175%,–
CCOC(=O)c1cccc(NC(=O)CCc2c(C)nn(-c3ccc(N4CCCCC4)nn3)c2C)c1,inactive: -8.47%,–
Cc1ccc(Sc2c(C)nn(C(C)(C)C)c2OC(=O)CC(C)C)cc1,inactive: -1.45%,–
Cc1cccc2c(=O)cc(CSc3ccccc3NC(=O)c3cccc(Cl)c3)[nH]c12,inactive: 8.18%,–
CCOc1ccc(-c2cc3c(=O)n(Cc4nc(-c5ccc(OCC)c(OC)c5)oc4C)ccn3n2)cc1Cl,inactive: 2.5%,–

Structure (SMILES),"activity change, negative = inhibition",Potency
CCCCn1cc2c(c1-c1ccc(Br)cc1)c(=O)n(C)c(=O)n2C,inactive: 1.21%,–
Cc1ccc2nc(CSc3nnc(NC(=O)C(C)C)s3)cc(=O)n2c1,inactive: 2.25%,–
Cc1cccc(OCC(=O)Nc2c(C(=O)Nc3ccc(F)cc3)oc3ccccc23)c1,inactive: -11.6%,–
Cc1cccc(N2C(=O)CSC23C(=O)N(C)c2ccccc23)c1 (centres undefined),inactive: 1.45%,–
COc1ccc(NCc2cc3ccc(OC)cc3n(CC(=O)Nc3ccc(C)c(C)c3)c2=O)cc1,inactive: -6.62%,–
O=c1c2sc3ccccc3c2n(Cc2cccc(Cl)c2)c(=O)n1Cc1ccccc1,inactive: 0.328%,–
COc1cc(NC(=O)NCCc2c(C)nn(C)c2C)cc(OC)c1OC,inactive: 0%,–
CCCN1CCN(c2nnc(-n3cccc3C(=O)Nc3ccccc3C(F)(F)F)s2)CC1,inactive: -5.76%,–
CCOc1ccc(OCC)c(NC(=O)c2cnn(-c3ccc(F)cc3)c2-n2cccc2)c1,inactive: -10.5%,–
CCc1ccc(-n2nc(C)c3c(C)cc(=O)n(CC(=O)Nc4cc(Cl)ccc4OC)c32)cc1,inactive: -14.1%,–
CC(=O)Nc1ccc(S(=O)(=O)NCCc2csc3nc(-c4ccc(Cl)cc4)nn23)cc1,inactive: -7.19%,–
COc1ccc(S(=O)(=O)Nc2cccc(-c3ccc(N4CCCCCC4)nn3)c2)cc1OC,inactive: 4.78%,–
CC(C)(C)OC(=O)N1CCC(c2c(C(=O)N3CCN(c4cccc(Cl)c4)CC3)cnn2-c2cccc(Cl)c2)CC1,inactive: 3.87%,–
CCc1ccc(NC(=O)C2CCCN(S(=O)(=O)c3ccc4[nH]c(=O)ccc4c3)C2)cc1 (centres undefined),inactive: -0.0942%,–
CCC1CN(C(=O)NCc2ccc(F)cc2)c2cc(C)ccc2O1 (centres undefined),–,active: 20.7 µM
CCOC(=O)C1CCN(C(=O)Cn2nc(C)n3c(cc4c(OC)cccc43)c2=O)CC1,inactive: -3.48%,–
COc1cccc(C(c2sc3nc(-c4ccco4)nn3c2O)N2CCC(C)CC2)c1 (centres undefined),inactive: -0.107%,–
O=C(CSc1ccnc(=O)[nH]1)NCc1ccc(F)cc1,inactive: -9.67%,–
Cc1cccc(N(C)S(=O)(=O)c2nnc(NC(=O)C(C)Oc3ccccc3)s2)c1 (centres undefined),inactive: 8.33%,–
CN1C(=O)c2ccccc2Sc2ccc(NC(=O)Cc3ccc(Cl)cc3)cc21,inactive: 0.888%,–
COc1ccc(OC)c(CCNC(=O)c2ccc3c(c2)N(Cc2ccccc2)CCS3)c1,inactive: 1.6%,–
COC(=O)c1sccc1S(=O)(=O)N1CCN(c2cccc(C)c2)C(C)C1 (centres undefined),inactive: -11.2%,–
O=C(NCc1ccccc1)C1CCN(c2ncnc3c2nc2n3CCCCC2)CC1,inactive: -4.23%,–
CCOC(=O)c1cccc(NC(=O)C2COc3ccc(OC)cc3C2)c1 (centres undefined),inactive: 2.15%,–

Structure (SMILES),"activity change, negative = inhibition",Potency
Cc1ccc(CCNC(=O)C2CC(=O)N(CCc3ccc(C)cc3)C2)cc1 (centres undefined),inactive: 1.43%,–
O=C(NCc1ccc(Cl)cc1)c1ccc2c(c1)nnn2C1CCCC1,inactive: 5.15%,–
CCCCc1ccc(NC(=O)Cn2cnc3c(oc4ccccc43)c2=O)cc1,inactive: -17.7%,–
Cc1ccc(-n2cc(-c3ccccc3)c3c(N4CCC(C)CC4)ncnc32)cc1Cl,inactive: 11.5%,–
COc1ccc(C)cc1NC(=O)CSc1nc(=O)n(Cc2ccco2)c2c1CCC2,inactive: 0.896%,–
Cc1nc2nc(NCc3ccccc3Cl)[nH]n2c(=O)c1Cc1ccccc1,inactive: 4.45%,–
CCOC(=O)c1cnc2c(C)cc(C)cc2c1NCCN1CCOCC1,inactive: 1.38%,–
O=C(Nc1ccccc1OCc1cc(=O)n2ccccc2n1)Nc1ccccc1C(F)(F)F,inactive: -14%,–
CCCSC1=NC2(CCN(C(=O)NC3CCCCC3)CC2)N=C1c1ccc(C)cc1,inactive: -2.31%,–
Cc1ccccc1NC(=O)CSc1nc2c(oc3ccccc32)c(=O)n1Cc1ccco1,inactive: 1.35%,–
Cc1ccc(C)c(OCc2nc3ccccc3n2C)c1,inactive: -11.6%,–
COc1ccccc1/C=C/c1nc(C#N)c(N(C)C)o1,inactive: 2.27%,–
Cc1c2cnn(CC(=O)Nc3cccc(C(F)(F)F)c3)c(=O)c2c(C)n1Cc1ccccc1Cl,inactive: -2.82%,–
CCOC(=O)N1CCc2c(sc3c2c(=O)n(-c2ccc(CC)cc2)c(=O)n3CC(=O)c2ccc(F)cc2)C1,inactive: -2.57%,–
COc1cc(C(=O)Nc2ccc3nc(SCc4ccccc4)sc3c2)cc(OC)c1OC,inactive: -14.6%,–
Cc1ccc(C(=O)NCC(c2cccs2)S(=O)(=O)c2cccs2)cc1 (centres undefined),inactive: 0.398%,–
CCC(Sc1nncn2c1cc1occc12)C(=O)Nc1ccc(C)c(Cl)c1 (centres undefined),inactive: 0%,–
CCN(C(=O)CSc1nc2ccccc2n1Cc1cc(C)ccc1C)c1ccccc1,inactive: 0%,–
Cc1c2cnn(CC(=O)NC(C)C)c(=O)c2c(C)n1Cc1ccccc1Cl,inactive: 1.8%,–
COc1cccc(C2C(C(=O)Nc3ccc(C)cc3C)=C(C)Nc3c(C(=O)Nc4cccc(C)c4)cnn32)c1OC (centres undefined),inactive: -2.87%,–
COc1cccc(N2CCN(C3C(=O)c4ccccc4N3C(C)=O)CC2)c1 (centres undefined),inactive: 1.36%,–
CCOc1ccc(OCC)c(NC(=O)CN(C)S(=O)(=O)c2ccc3c(c2)CCCC(=O)N3)c1,inactive: 6.82%,–

# Source: PubChem BioAssay AID493208 (National Center for Advancing Translational Sciences (NCATS), 2011)
